± gives the standard deviation of the averaged measurements. The list shows a part of the results.

The results in this text go back to the supplement of paper PMC11417369.

The test system of the assay is PfAP2-I AP2 domain 3 (GST-tagged). Description: gcPBM binding intensity (ln(normalized median fluorescence intensity)); higher = stronger DNA binding. A digest of the protocol: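 Alexa488 anti-GST antibody, scanned at 488 nm, detected GST-tagged P. falciparum DNA-binding domains that had been expressed in E. coli and incubated for 1 h on an Agilent 4 × 180k array. The array carried primer-extended double-stranded 36-bp intergenic genomic probes and negative controls. Binding intensity is the highest Masliner-normalised natural-log median intensity across replicate spots of either orientation of each probe.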
In the case of “ACTTTACGAATTAAGAGTACTTATTTAAGGAACACT [XGTACX_site7919]”, the “gcPBM binding intensity (ln)” value stood at 7.91 ± 0.49.
For “TTTTTATTGAGATACTTATATAATTTTATGAATAAA [XGTACX_negctrl_site311]” the value was 7.79 ± 0.014; for “TTTTTTTGCTCTTTTTATATATATATATATATATAT [GTGCAC_negctrl_site70]”, 9.46 ± 0.27; for “TTTGAAAAGTTGAAATGTACACATTTACACATATTT [XGTACX_site1641]”, 7.8 ± 0.49.
For “ATAATTATTCTTATGGTGCACTGAATATACATGTTG [GTGCAC_site9760]” the value was 11.1 ± 0.47.
In the case of “ATAGCACATTTTTAAGCACACGTTTATTATATATAT [CACACA_site6084]” it was 8.94 ± 0.34.
As to “CAAAAATATATTTTTTGTACACAAAAAAAAAATAAA [XGTACX_site5229]”, the “gcPBM binding intensity (ln)” value is 7.95 ± 0.22.
In the case of “AAATACATATCATGTAGTACATATATATGTAGGTTA [XGTACX_site5392]” it was 7.75 ± 0.48.
Turning to “AAAACTATTAAATGTAGTACATAATTATTGAAATAA [XGTACX_site8716]”, the “gcPBM binding intensity (ln)” value worked out at 7.72 ± 0.22.
For “CTTTCCCTATATTGCTGTACATGTATTCAAAAAACA [XGTACX_site353]” the value was 8.3 ± 0.42; for “CGCGAACATACATACACACACATATATATATCTGTA [CACACA_site4277]”, 7.88 ± 0.46.
In the case of “AACACCCAAAAACACACACACATACATACATACATA [CACACA_site4411]” it was 8.24 ± 0.91; in that of “AACATTAATTTCCTATGTACTTAATATATTGTTTTT [XGTACX_site4440]”, 7.83 ± 0.66; in that of “ATTTATATATATGTATGTACGTATGTGTGTATATGT [XGTACX_site7587]”, 8.55 ± 0.27.
In the case of “ACCAATTTGACAAACTGTACAAAAAAAATATTAAAA [XGTACX_site1186]” it was 7.67 ± 0.49.
With “TACACAAAAATAAACACACACACATATATATATATA [CACACA_site1000]”, the “gcPBM binding intensity (ln)” value was 9.45 ± 0.47.
In the case of “TATATATTCCTCCATAGTACAATAATAAAGATAAAA [XGTACX_site5785]” it was 7.93 ± 0.35; in that of “TTTATTTAAAATAAGTGTACTAGAAAAATTAAGCAG [XGTACX_site4982]”, 8.55 ± 0.16; in that of “ATTCCTCATTAATATTCTTATTTTTTAATTCACATT [XGTACX_negctrl_site329]”, 8.04 ± 0.54.
For “TAAAAGGAGACATATACACACATATATATATATATA [CACACA_site5539]” the value was 9.16 ± 0.18; for “TGTGATTATGATAAAAGTACAGAAATAAATATACTA [XGTACX_site38]”, 7.92 ± 0.3.
In the case of “TTTTATAAAGAACACAGACACACAAAGAAAGAACCA [CACACA_site4174]” it was 8.2 ± 0.45; in that of ATAAAAAGCTAAAAAGTGCAAAAAGTAAATATTTAA, 10.2 ± 0.12; in that of “TATATATACTTAGAAACACACAAAAATATTTTATAA [CACACA_site2578]”, 7.67 ± 0.4.
“TAATTAGTTTTTACTTTTTTTTTTTTTTTTCTATAT [CACACA_negctrl_site1024]”: the “gcPBM binding intensity (ln)” value was 7.24 ± 0.5.
In the case of “TTATGTATATTATAAATTAATACCTTTAAATTAATA [CACACA_negctrl_site67]” it was 7.33 ± 0.38.
In the case of “ATAATCCTGAAACACACACACACACCCATAAATAAA [CACACA_site481]” it was 8.04 ± 0.25; in that of “TATAACTTATTTTTTAGTACATATTATAGTTCATTT [XGTACX_site8649]”, 7.79 ± 0.29.
In the case of “TTTATTTATATAATTACACACATATATACTCAAATG [CACACA_site5543]” it was 7.63 ± 0.47.
Turning to “ATATGTACTATACGCACACACACTCACATATTTATA [CACACA_site7510]”, the “gcPBM binding intensity (ln)” value was 9.08 ± 0.31.
In the case of “ATAGGGTTTCTACTTTAACATTTTTGAAATATTATA [GTGCAC_negctrl_site260]” it was 7.84 ± 0.37; in that of “TTCTTAATTCATACCATCAAAACATTTATTCATATC [CACACA_negctrl_site43]”, 7.64 ± 0.63.
For “TATTATAAATAAATAGAAAAAAAAATGATAAATGGA [CACACA_negctrl_site865]” the value was 7.8 ± 0.65; for “ATAATAAATACACTAGTGCAAAATAATATATGTACT [GTGCAC_site9707]”, 10.4 ± 0.22; for “ATATACAGAAAAAATTAAAATAAATATGCAAAACAA [CACACA_negctrl_site704]”, 8.57 ± 0.52.
For “AATATACGATTGTCATTCATACATTGTTAACATAGT [CACACA_negctrl_site1151]” the value was 7.54 ± 0.59; for “TACAATGAACATGAAACACACAAAAAAAAAAAAAAA [CACACA_site1544]”, 8 ± 0.47; for “ACATAGTAAATATTATGTACATAATATATACATTTA [XGTACX_site7500]”, 7.57 ± 0.55.
Turning to “TAAAAATGATCAAAGGGTACAGTATTAATTAAAAAA [XGTACX_site1079]”, the “gcPBM binding intensity (ln)” value is 7.74 ± 0.73.
For “TTTACTTTTTTTATATATTATTTATTATATAATATA [CACACA_negctrl_site211]” the value was 7.61 ± 0.34.
For “TACATATATATAATATATATATCATCATATTTTCTT [XGTACX_negctrl_site478]” the value was 7.36 ± 0.37; for “CTTAAACTTTTAAATACACACATACAGACATACACA [CACACA_site6401]”, 8.055 ± 0.021; for “TTTATATTTCATTTGTTATTTTTCTTGGTTCTATAT [TGCATGCA_negctrl_site23]”, 7.78 ± 0.56.
In the case of “TTTTTTTTTTTTTTTTTTATATTTCATAATTTCATT [XGTACX_negctrl_site579]” it was 8.27 ± 0.6; in that of “TTTTGCCTGAACAATGCATGTTATTTTTATTTTTTT [TGCATGCA_site673]”, 7.74 ± 1.
Take “TCATTTAAGTCATATTGAAATATGCATTATTCAAAA [CACACA_negctrl_site958]”: the “gcPBM binding intensity (ln)” value was determined as 7.56 ± 0.55.
In the case of “AAATGTGTTAATGTGCGTACACATATATATAATATT [XGTACX_site2792]” it was 8.21 ± 0.35; in that of “ATCACTAATTTTTTTACACACCACAATTTAATTTTT [CACACA_site1186]”, 8.34 ± 0.38.
For “AATATATACACATGCGCACACACAAGTGGGAAATTT [CACACA_site8527]” the value was 8.31 ± 0.47; for “AATGAAAAGAAATAATAAATAAATGATGACCAGCTG [GTGCAC_negctrl_site398]”, 7.62 ± 0.69.
For “TGATTATCCTTCAGGAGTACATATAATATAATATAT [XGTACX_site1479]” the value was 8.045 ± 0.035; for “TTATAAAGAAAAAATTGCTTTAAAAGAAAGATTACA [CACACA_negctrl_site960]”, 7.53 ± 0.58.
On to “AAAAACAAAATTTGGAGTACAGTTATAATATTATTA [XGTACX_site5245]”, for which the “gcPBM binding intensity (ln)” value is 8 ± 0.24.
For “ATATATATATGAATCACACACAAAAAATATAGAGAT [CACACA_site3913]” the value was 8.935 ± 0.007; for “TAATGTATTATTTAATGTACTTAAAAAATAAATAAA [XGTACX_site3296]”, 7.77 ± 0.014; for “AATGAACAGACGAGCACACACACACCCATATATATA [CACACA_site1018]”, 8.21 ± 0.73.
With “ACCTTTAATAAATACACACACATAAAAAAAATATAT [CACACA_site5086]”, the “gcPBM binding intensity (ln)” value stood at 8.34 ± 0.2.
In the case of “GGGGAGCTATCTCCTGCACACACAATTTTTTTTTTT [CACACA_site8703]” it was 8.8 ± 0.69.
Take “CACAAATATATACATACACACATATATACGCATATA [CACACA_site395]”: the “gcPBM binding intensity (ln)” value came out at 7.79 ± 0.41.
Consider “TATTATATGAATAATTGTACGAAATTTAAAAGACAA [XGTACX_site7558]”, for which the “gcPBM binding intensity (ln)” value was 7.86 ± 0.39.
With “AACCAAATTTCACCATGTACATATTGATAAATATAT [XGTACX_site1374]”, the “gcPBM binding intensity (ln)” value was 7.96 ± 0.49.
For “ATATGATTTGGATGTAGTACATATTTTTTTATGTTT [XGTACX_site1929]” the value was 7.89 ± 0.51; for “GCACCAAAAAAAAGACGTACAGTTATATTAAAATAG [XGTACX_site8926]”, 8.36 ± 0.32; for “AAATGAACAAGTGGCACACACACATTCTAACTAATT [CACACA_site3203]”, 8.24 ± 0.53.
With “CGGGGGTAGTTTTATGCACACGTTTATTAATGCTTC [CACACA_site5717]”, the “gcPBM binding intensity (ln)” value was found to be 10.3 ± 0.11.
For “ACATGAATATATACACGTACATATATACATATATAT [XGTACX_site5872]” the value was 7.85 ± 0.42; for “ACCAATAATATACATACACACATAAATGTTTATATA [CACACA_site4328]”, 7.74 ± 0.57.
For TGAAAAACTATCAGAGTGCATATATAGCTCGATACA the value was 10 ± 0.38.
In the case of “TAAAATAATATATGGTGTACACAAAAGTATAAATAA [XGTACX_site4991]” it was 8.71 ± 0.81.
In the case of “ATATAAAAAAAATTTAGTACATATATATATATATAT [XGTACX_site8635]”, the “gcPBM binding intensity (ln)” value came out at 9.34 ± 0.65.
In the case of “AAAAAAATAATTAACACACACATGTATATCTATATA [CACACA_site3139]” it was 7.78 ± 0.53; in that of “TATATATATATATTATGTACTCATTTATTATCTTTT [XGTACX_site8051]”, 9.25 ± 0.16; in that of “ATTACCATATTTTGTACACACATCTTTATCTCAATA [CACACA_site3217]”, 8.39 ± 0.46.
For “TAAAAATTAAAGTGTACACATATATATATATATATA [CACACA_site4781]” the value was 9.47 ± 0.63; for “TTTTATGTTTATGTGGTGCATGTTTTGAAGAAAATA [GTGCAC_site9616]”, 9.43 ± 0.18.
For “TATAAACCGACGAAAACACACATATGTAAATATATA [CACACA_site491]” the value was 7.66 ± 0.73.
For the sequence “AAACCTATGTATATTATACACACTCCAAACTATTAT [CACACA_site8536]”, the “gcPBM binding intensity (ln)” value was determined as 7.96 ± 0.65.
As for “AAAAAAAAAAAGCACACACACATATGCGTATATATA [CACACA_site954]”, the “gcPBM binding intensity (ln)” value was 7.99 ± 0.45.
For “GGAGAAAAAAAAAAAAAACACACGGTACATTCAAAG [CACACA_site1503]” the value was 7.78 ± 0.81; for “TTTTTTTCGTATATTACACACTATATATAGAAATTA [CACACA_site298]”, 8 ± 0.4; for “AAAAAATGTAAATATAAACAACCAAAGGGGGTATAC [GTGCAC_negctrl_site465]”, 8.12 ± 0.38.
In the case of “TTATTAAAGGAAAAATGTACATATAAATGAATATGT [XGTACX_site23]” it was 7.9 ± 0.68; in that of “GAAAAAAAACACATTGTGCACTTTTCCTTAAGTATA [GTGCAC_site9475]”, 10.5 ± 0.21; in that of “ATAATATTTTATGGTTGTACTTTTAGTTCTTTTTTT [XGTACX_site5756]”, 7.6 ± 0.65.
In the case of “ATTAAATATATTTTGCGTACACAAAAAAATACGTTC [XGTACX_site3862]” it was 8.44 ± 0.2; in that of “TACGTGAAGTTATATACACACATAAATATGTCTGTA [CACACA_site7463]”, 7.45 ± 0.54; in that of “TTAAAGTATAACTGTACATGCGAGTAAAAGAATGAC [TGCATGCA_site899]”, 8.39 ± 0.69.
Regarding “TATGTTTTTCGGTATGCATGCATATGCTTAATAATA [TGCATGCA_site184]”, the “gcPBM binding intensity (ln)” value came out at 7.97 ± 0.65.
